Test results as given in ChEMBL document CHEMBL4888484, “Replenishing the malaria drug discovery pipeline: Screening and hit evaluation of the MMV Hit Generation Library 1 (HGL1) against asexual blood stage Plasmodium falciparum ,using a nano luciferase reporter read-out” (2022).
About 540 (0.36%) of roughly 150,000 compounds showed an effect of 50% or more. The list shows a part of the results.

Tested on: Plasmodium falciparum
Experiment: Primary screen in NF54 nanoGlo assay, in single point, at 2uM, 72h; a lower Z score goes with more inhibition
Assay type: functional, Erythrocyte
Conditions: timepoint 72 hour

Compound | % Inhibition [%] | Z score
O=C(NCCN1CCCC1=O)c1cccc(-c2c[nH]cn2)c1 | -3 | 0.4
Cn1c(CN2CCCCCC2)nnc1C1CCN(C(=O)Cn2cccn2)CC1 | 0 | -0.01
CN(Cc1cnn(C)c1)C(=O)[C@@H]1CCCO1 | -4 | 0.33
O=C(Nc1cccc(CNc2ncccn2)c1)c1ccco1 | -4 | 0.39
CC(C)CCc1noc(CN[C@@H]2C(=O)NCC23CCOCC3)n1 | -3 | 0.5
O=C(NCC1COc2ccccc2O1)[C@@H]1CCCN1C(=O)c1cccs1 (stereo partly specified) | 0 | 0.05
C[C@@H](CC1(C#N)CCN(C(=O)OC(C)(C)C)CC1)NCC(F)F | -9 | 1.21
CCn1c(=O)c2c(ncn2Cc2ccc(OC)cc2)n(-c2ccccc2C)c1=O | 0 | 0.03
COc1ccc2cc(-c3nc4cc(C)cc(C)c4o3)ccc2c1 | -15 | 1.34
CC(C)OC(C)(C)C(=O)Nc1ccn(Cc2ccncc2)n1 | 3 | -0.47
O=C(Cc1ccc2[nH]c(=O)[nH]c2c1)N1CC(C2CCCCC2)C1 | -9 | 1.29
CC1CN(Cc2nc3c(cnn3C)c(=O)[nH]2)CC(C)O1 (stereo unspecified) | -8 | 0.94
N#Cc1ccccc1-c1cc(C(=O)O)cc(S(=O)(=O)N2CCCCCC2)c1 | -8 | 0.9
O=C(CC1=CCCCC1)N(CCC(F)(F)F)C1CCC1 | -1 | 0.18
COc1ccc2c(c1)C(C(=O)NC1CS(=O)(=O)c3ccccc31)CC2 (stereo unspecified) | -3 | 0.53
COc1cccc(C2=Nc3cccnc3N(CC(=O)Nc3cccc(C(F)(F)F)c3)C(=O)C2)c1 | -2 | 0.44
C=CCNC(=O)C(C)N1CCCC1C1CCCN1C(C)=O (stereo unspecified) | -9 | 1.15
COc1ccccc1C(=O)N1CCN(c2cc(=O)n(C(C)C)c(=O)n2C(C)C)CC1 | -5 | 0.71
Cn1c(=O)c2c(ncn2Cc2nc(C(F)(F)F)cs2)n(C)c1=O | -12 | 1.89
CCC(NC(=O)N1CCC(C)C(OC)C1)c1cccs1 (stereo unspecified) | 1 | -0.17
COc1cc(-c2noc(CCC(=O)N3CCC[C@@H]3CN)n2)cc(Cl)c1OC | -8 | 0.78

Compound | % Inhibition [%] | Z score
Cc1cccc2c1OCC[C@@H]2NC(=O)CNC(=O)c1ccc(F)cc1F | -9 | 0.9
O=C1C2ON(c3ccccc3)C(c3ccc(-c4ccc(Cl)cc4Cl)o3)C2C(=O)N1c1ccc(F)cc1 (stereo unspecified) | -11 | 1.19
O=C(Cn1nc(N2CCOCC2)c2ccccc2c1=O)Nc1ccccc1C(F)(F)F | -7 | 1.09
C=C(C)CN(C)C(=O)CC(=O)Nc1cc(C)cc(C)c1 | 3 | -0.35
CCc1cc(C(=O)NC2CCCCC2)on1 | -14 | 2.1
COC(=O)c1cccc(C#Cc2cccc(NC(=O)[C@H](C)Oc3ccccc3)c2)c1 | -18 | 3.44
COCC(=O)N[C@H](C(=O)NC1CC1c1ccc(F)cc1F)C(C)C (stereo partly specified) | -21 | 1.93
CCNC(=O)C[C@H]1CCCCN1C(=O)CN1CCN(Cc2ccccc2)CC1 | -7 | 0.71
COc1nc(C)nc2c(CN(C)C)c(C)[nH]c12 | 37 | -4.72
O=c1c2cccnc2n(Cc2ccc(F)cc2)c(=O)n1C1CCCCC1 | -6 | 1.18
C=CCN(CC(=O)N(Cc1ccccc1)Cc1ccc(C)o1)C(=O)c1ccc(F)cc1 | 0 | 0.02
COCC(=O)N1CCN(Cc2csc(-c3ccc(Br)cc3)n2)CC1 | -6 | 1.35
O=S(=O)(c1ccc2c(c1)CCC2)N1CC(n2ccnc2)C1 | -4 | 0.56
CC[C@@H](CNC(=O)c1nccn1C)N1CCN(C)CC1 | 4 | -0.43
CCC1=NO[C@@H](CN(C)Cc2nc(-c3ccccn3)no2)C1 | 9 | -1.14
CCOC(=O)N1CCC(NC(=O)c2cccc(C)n2)CC1 | 5 | -0.72
O=C(O)c1cnc(N2CCC(Cc3ccccc3)CC2)c(NS(=O)(=O)c2ccc(F)cc2)c1 | -6 | 0.58
CC[C@@H](C(=O)N1CCCC1)N(c1nc(-c2ccc(C)cc2)cs1)c1ccccc1OC | -6 | 0.74
CC[C@H](NC(=O)c1cscn1)c1ccc(C)cn1 | 10 | -1.88
Cc1noc(-c2ccc(C(C)(C)C)cc2)c1C(=O)NCCOc1ccccc1 | 35 | -4.65
CCN(Cc1nn(-c2ccc(F)cc2)c2c1CN(Cc1ccc(F)cc1)CC2)C(=O)c1cccc(F)c1 | -6 | 0.71

Compound | % Inhibition [%] | Z score
CCNC(=O)N1CCc2nc(N3CCc4ccccc4C3)nc(N3CCOCC3)c2C1 | 5 | -0.7
Clc1cnc(N2CCN(Cc3cncnc3)CC2)nc1 | -5 | 1.01
CCC(C)(CC)NC(=O)N1CC(c2ccccn2)C1 | -12 | 1.56
O=C(Cc1ccsc1)NC1CCN(c2cnsn2)CC1 | -9 | 1.18
CCCc1c(N[C@H]2CCN(C)C2=O)cnn1-c1cccc(F)c1 | -7 | 0.63
O=C1NCCC[C@@H]1N1CCC2(CCCC2)CC1 | 14 | -1.99
Cc1ccc2ncc(CN(C)CC(C)(C)S(C)(=O)=O)n2c1 | 3 | -0.5
O=C1C[C@H](C(=O)N(CCc2ccccc2)C2CCCCC2)CN1 | -15 | 1.49
N#Cc1ccc(NC2CCC3(CC2)OCCO3)nc1 | 2 | -0.28
Cc1nnc(CC(=O)NCC2(c3ccccc3Cl)CCC2)s1 | -11 | 1.49
CC(C)[C@H](NC(=O)CCCN1C(=O)c2ccncc2C1=O)c1nc2ccccc2n1C(C)C | -5 | 0.65
CCN1CCN(C2CN(C(=O)CC(C3CCC3)C3CCC3)C2)CC1 | -7 | 1.39
CC(C)c1nnc(NC(=O)COc2ccc3c(c2)OCO3)s1 | -9 | 1.66
CCOc1ccc(CN2CCC[C@@](F)(C(=O)N3CCOCC3)C2)cc1OC | -11 | 0.93
CN1CCN(S(=O)(=O)c2ccccc2CNC(=O)NC23CCCC2C3)CC1 (stereo unspecified) | -7 | 1.05
COc1c(CN[C@H]2CCCN(c3ccc(C#N)cc3F)C2)c(C)nn1C | -10 | 0.99
COc1cc([C@H](C(=O)Nc2ccc(N(C)C)cc2)N(Cc2ccc(C)cc2)C(=O)Cc2ccccc2)cc(OC)c1OC | 20 | -2.52
[O-][S+]1c2ccc(Cl)cc2CC(N2CCN(CCO)CC2)c2ccccc21 (stereo unspecified) | -27 | 3.21
CN(Cc1nccn1C(F)F)[C@@]1(CO)CCOC1 | -10 | 1.47
C[C@@H]1CN(CC(C#N)CCC#N)CCN1C(=O)OC(C)(C)C (stereo partly specified) | -4 | 0.52
CCN1CCC(NC(=O)c2cc(C3CC3)nn2C)(C(F)(F)F)CC1 | -7 | 1.4

Compound | % Inhibition [%] | Z score
Cn1nccc1C(=O)NCc1ccc2[nH]c(=O)[nH]c2c1 | -13 | 1.51
Cc1noc(C(F)F)c1C(=O)NC[C@@]1(c2cnn(C)c2)CCCO1 | -24 | 2.62
CCCCNC(=O)CN(C)C(=O)c1cn(C)c(C)cc1=O | -13 | 1.92
Cc1ccc(CN(C(=O)CCn2ccccc2=O)C2CC2)cc1C | 6 | -1.21
CCC(CC)(C(=O)N1CCC2(CCOCC2)CC1)c1ccccc1 | -15 | 2.74
CN(C)c1nc(Cn2cnc3c2c(=O)n(C)c(=O)n3C)ns1 | 33 | -3.77
O=S(=O)(C1CC1)N1CCc2ccccc2C1 | -5 | 0.74
CCS(=O)(=O)C[C@](C)(Cl)C(=O)Nc1ccc(C(=O)OC)cc1 | -14 | 1.6
CC(C)Cc1nc(CN(C)c2noc(C3CC3)n2)no1 | -2 | 0.38
COc1cccc(-c2ccc(N3CCN(C(=O)CN(CCN4CCOCC4)C(=O)C4CCC4)CC3)nn2)c1 | 5 | -0.75
COc1ccc(-c2cc3n(n2)C[C@@](C)(C(=O)NC2CCCCCCC2)N(C2CCCC2)C3=O)cc1 | 1 | -0.12
COC(=O)N1CCCC(NC(C)c2ccc(OC)cc2)C1 (stereo unspecified) | 2 | -0.36
CCN(CCOc1cccc(Cl)c1)C(=O)c1c(C)cc(C)[nH]c1=O | -5 | 0.92
C[C@H](NC(=O)NCCC1CCCCC1)[C@H](O)c1ccc(O)cc1 | -2 | 0.27
C[C@H]1CCc2c(sc(NC(=O)c3ccc(S(=O)(=O)N4CCCC4)cc3)c2C(N)=O)C1 | -7 | 1.19
C=Cc1ccc(CN(c2cc(F)cc(F)c2)S(=O)(=O)c2cccn3cnnc23)cc1 | -4 | 0.66
COc1ccc(NC(=O)N2CCc3c(C(=O)NCCCN4CCCC4=O)cccc32)cc1 | 10 | -1.09
CCN1C[C@]2(CCCN(C(=O)c3ccc(-c4ccccc4)[nH]c3=O)C2)CCC1=O | -14 | 1.95
FC(F)(F)c1ccc(N[C@H]2CCCN(c3ncccn3)C2)nc1 | 5 | -0.65
Cc1nc(NC(=O)N2CC(C)OC3(CCOC3C)C2)ccc1-c1ccccc1 (stereo unspecified) | -4 | 0.56
